Data on 31 molecules can be found in publication PMC9911399, “Two distinct binding modes provide the RNA-binding protein RbFox with extraordinary sequence specificity”.

B1: GGAGUCU (DNA:RNA)
RNA: GGGAGACCGGAAUUCAGAUUGUCCGGAGUCUUUAAAUCCCGUCGUAGCCACCA
DNA 1: CAATCTGAATTCCGGTCTCCC
DNA 2: TGGTGGCTACGACGGGATT
B2: CCUUUCG (DNA:RNA)
RNA: B1 RNA with G25C, G26C, A27U, G28U, U31G
DNA 1: CAATCTGAATTCCGGTCTCCC
DNA 2: TGGTGGCTACGACGGGATT
B3: UUUCCAC (DNA:RNA)
RNA: GGGAGACCGGAAUUCAGAUUGUCCUUUCCACUUAAAUCCCGUCGUAGCCACCA
DNA 1: CAATCTGAATTCCGGTCTCCC
DNA 2: TGGTGGCTACGACGGGATT
B4: CUUCAAG (DNA:RNA)
RNA: B3 RNA with U25C, C29A, C31G
DNA 1: CAATCTGAATTCCGGTCTCCC
DNA 2: TGGTGGCTACGACGGGATT
B5: AGUGUGA (DNA:RNA)
RNA: B1 RNA with G25A, A27U, C30G, U31A
DNA 1: CAATCTGAATTCCGGTCTCCC
DNA 2: TGGTGGCTACGACGGGATT
B6: UCUGGAG (DNA:RNA)
RNA: B3 RNA with U26C, C28G, C29G, C31G
DNA 1: CAATCTGAATTCCGGTCTCCC
DNA 2: TGGTGGCTACGACGGGATT
B7: CCGGAUC (DNA:RNA)
RNA: B1 RNA with G25C, G26C, A27G, U29A, C30U, U31C
DNA 1: CAATCTGAATTCCGGTCTCCC
DNA 2: TGGTGGCTACGACGGGATT
B8: GGCUCAA (DNA:RNA)
RNA: B1 RNA with A27C, G28U, U29C, C30A, U31A
DNA 1: CAATCTGAATTCCGGTCTCCC
DNA 2: TGGTGGCTACGACGGGATT
B9: ACUCCGU (DNA:RNA)
RNA: B3 RNA with U25A, U26C, A30G, C31U
DNA 1: CAATCTGAATTCCGGTCTCCC
DNA 2: TGGTGGCTACGACGGGATT
B10: CGUGGUC (DNA:RNA)
RNA: B1 RNA with G25C, A27U, U29G, C30U, U31C
DNA 1: CAATCTGAATTCCGGTCTCCC
DNA 2: TGGTGGCTACGACGGGATT
B11: AUGCAGU (DNA:RNA)
RNA: B3 RNA with U25A, U27G, C29A, A30G, C31U
DNA 1: CAATCTGAATTCCGGTCTCCC
DNA 2: TGGTGGCTACGACGGGATT
B12: CCUACAA (DNA:RNA)
RNA: B3 RNA with U25C, U26C, C28A, C31A
DNA 1: CAATCTGAATTCCGGTCTCCC
DNA 2: TGGTGGCTACGACGGGATT
B13: CACUCUC (DNA:RNA)
RNA: B3 RNA with U25C, U26A, U27C, C28U, A30U
DNA 1: CAATCTGAATTCCGGTCTCCC
DNA 2: TGGTGGCTACGACGGGATT
B14: GAAGCAU (DNA:RNA)
RNA: B1 RNA with G26A, U29C, C30A
DNA 1: CAATCTGAATTCCGGTCTCCC
DNA 2: TGGTGGCTACGACGGGATT
B15: UAUACUA (DNA:RNA)
RNA: B3 RNA with U26A, C28A, A30U, C31A
DNA 1: CAATCTGAATTCCGGTCTCCC
DNA 2: TGGTGGCTACGACGGGATT
B16: UUUCUUC (DNA:RNA)
RNA: B3 RNA with C29U, A30U
DNA 1: CAATCTGAATTCCGGTCTCCC
DNA 2: TGGTGGCTACGACGGGATT
B17: GCGGACC (DNA:RNA)
RNA: B1 RNA with G26C, A27G, U29A, U31C
DNA 1: CAATCTGAATTCCGGTCTCCC
DNA 2: TGGTGGCTACGACGGGATT
B18: UACGGUA (DNA:RNA)
RNA: B1 RNA with G25U, G26A, A27C, U29G, C30U, U31A
DNA 1: CAATCTGAATTCCGGTCTCCC
DNA 2: TGGTGGCTACGACGGGATT
B19: GCUAGAC (DNA:RNA)
RNA: B3 RNA with U25G, U26C, C28A, C29G
DNA 1: CAATCTGAATTCCGGTCTCCC
DNA 2: TGGTGGCTACGACGGGATT
B20: AUGGUAA (DNA:RNA)
RNA: B1 RNA with G25A, G26U, A27G, C30A, U31A
DNA 1: CAATCTGAATTCCGGTCTCCC
DNA 2: TGGTGGCTACGACGGGATT
B21: GUGGAUA (DNA:RNA)
RNA: B1 RNA with G26U, A27G, U29A, C30U, U31A
DNA 1: CAATCTGAATTCCGGTCTCCC
DNA 2: TGGTGGCTACGACGGGATT
B22: UCAUAUC (DNA:RNA)
RNA: B3 RNA with U26C, U27A, C28U, C29A, A30U
DNA 1: CAATCTGAATTCCGGTCTCCC
DNA 2: TGGTGGCTACGACGGGATT
B23: AGUUCCG (DNA:RNA)
RNA: B1 RNA with G25A, A27U, G28U, U29C, U31G
DNA 1: CAATCTGAATTCCGGTCTCCC
DNA 2: TGGTGGCTACGACGGGATT
B24: UCCAUCG (DNA:RNA)
RNA: B1 RNA with G25U, G26C, A27C, G28A, U31G
DNA 1: CAATCTGAATTCCGGTCTCCC
DNA 2: TGGTGGCTACGACGGGATT
B25: AUGGUUC (DNA:RNA)
RNA: B1 RNA with G25A, G26U, A27G, C30U, U31C
DNA 1: CAATCTGAATTCCGGTCTCCC
DNA 2: TGGTGGCTACGACGGGATT
B26: AGACAAA (DNA:RNA)
RNA: B1 RNA with G25A, G28C, U29A, C30A, U31A
DNA 1: CAATCTGAATTCCGGTCTCCC
DNA 2: TGGTGGCTACGACGGGATT
B27: GAAGCUA (DNA:RNA)
RNA: B1 RNA with G26A, U29C, C30U, U31A
DNA 1: CAATCTGAATTCCGGTCTCCC
DNA 2: TGGTGGCTACGACGGGATT
B28: GUGUAUA (DNA:RNA)
RNA: B1 RNA with G26U, A27G, G28U, U29A, C30U, U31A
DNA 1: CAATCTGAATTCCGGTCTCCC
DNA 2: TGGTGGCTACGACGGGATT
B29: AAAGUGU (DNA:RNA)
RNA: B1 RNA with G25A, G26A, C30G
DNA 1: CAATCTGAATTCCGGTCTCCC
DNA 2: TGGTGGCTACGACGGGATT
B30: CGGCGGG (DNA:RNA)
RNA: B1 RNA with G25C, A27G, G28C, U29G, C30G, U31G
DNA 1: CAATCTGAATTCCGGTCTCCC
DNA 2: TGGTGGCTACGACGGGATT
B31: CGACGGC (DNA:RNA)
RNA: B1 RNA with G25C, G28C, U29G, C30G, U31C
DNA 1: CAATCTGAATTCCGGTCTCCC
DNA 2: TGGTGGCTACGACGGGATT

Changes are numbered by the printed parent chain; changes in the protein carry UniProt numbers. The list shows a part of the results.

The target of the assay is T1, RBFOX1 RRM RbFoxmut (Fox-RRM*) (Homo sapiens, UniProt Q9NWB1 109-208, R118D;E147R;N151S;E152T).
T1 sequence: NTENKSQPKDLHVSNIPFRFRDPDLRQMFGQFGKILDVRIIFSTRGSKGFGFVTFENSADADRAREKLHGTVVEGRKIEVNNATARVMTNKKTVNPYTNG
Nature of the assay: EMSA; HiTS-Eq, 1 nM pool, 10 min; buffer printed only for the single-RNA assays: 10 mM Tris pH 7.5, 150 mM NaCl, 3.4 mM EDTA, 0.001% NP-40, 30 C. Particulars: tags: His6 N-terminal (pET28a); label: 5' 32P. A digest of the protocol: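 These values rest on relative association constants, computed from read-count changes of each RNA species versus the control reaction and normalised to the cognate motif. Reads came from free RNA recovered by 8% native PAGE after purified RbFox RRM (wild type or mutant) at increasing concentrations was equilibrated for 10 min in 50 µL with 1 nM of a 5′-radiolabelled pool with 7 randomized nucleotides and DNA-annealed flanks.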
For orientation: Mobility shift assays separate free from complexed probe on a gel.
As to B1, the binding signal is 0.09 KA relative to UGCAUGU.
Turning to B2, the binding signal is 0.101 KA relative to UGCAUGU.
The figure for B3 is 0.0902 KA relative to UGCAUGU.
Then B4, with 0.108 KA relative to UGCAUGU; and B5, with 0.114 KA relative to UGCAUGU; and B6, with 0.0838 KA relative to UGCAUGU.
The figure for B7 is 0.088 KA relative to UGCAUGU; for B8 it is 0.0697 KA relative to UGCAUGU.
With B9, the binding signal is 0.102 KA relative to UGCAUGU.
The figure for B10 is 0.273 KA relative to UGCAUGU; for B11 it is 0.0865 KA relative to UGCAUGU.
The figure for B12 is 0.0559 KA relative to UGCAUGU.
B13: the binding signal is 0.0672 KA relative to UGCAUGU.
Regarding B14, the binding signal is 0.112 KA relative to UGCAUGU.
Consider B15, for which the binding signal is 0.0619 KA relative to UGCAUGU.
Then B16, with 0.0439 KA relative to UGCAUGU; and B17, with 0.062 KA relative to UGCAUGU; and B18, with 0.106 KA relative to UGCAUGU.
Then B19, with 0.108 KA relative to UGCAUGU; and B20, with 0.154 KA relative to UGCAUGU.
Turning to B21, the binding signal is 0.129 KA relative to UGCAUGU.
The figure for B22 is 0.0708 KA relative to UGCAUGU; for B23 it is 0.103 KA relative to UGCAUGU; for B24 it is 0.0984 KA relative to UGCAUGU.
The figure for B25 is 0.179 KA relative to UGCAUGU.
Then B26, with 0.0626 KA relative to UGCAUGU; and B27, with 0.0968 KA relative to UGCAUGU.
For the molecule B28, the binding signal is 0.166 KA relative to UGCAUGU.
Then B29, with 0.122 KA relative to UGCAUGU; and B30, with 0.0801 KA relative to UGCAUGU; and B31, with 0.11 KA relative to UGCAUGU.
